Assay results published in PubChem BioAssay AID1458 (National Center for Advancing Translational Sciences (NCATS), 2008).
Hit rate of the full screen: of about 210,000 compounds, about 5,900 (2.8%) were called active. This list was built around the results that the source calls inconclusive (neither active nor inactive); the mix of calls is not that of the screen. Calls follow the shape of the dose curve; as a rule, active = well fitted activation curve with a large enough effect; inconclusive = small, poorly fitted or top-dose-only effect; inactive = no such curve, though single readings can be large or run the other way. A potency beside an inconclusive call is a rough fit, not a confirmed value.

assay: qHTS Assay for Enhancers of SMN2 Splice Variant Expression; settings: HEK293 SMN2-luciferase splicing reporter, luminescence, 30-36 h; series mostly up to 46.1 µM; also: nearly all actives have a fitted effect of over 55% in size
In short: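 HEK293 cells carry an SMN2 […]–luciferase reporter in which exon 7 inclusion puts luciferase in frame. Cells were plated 10-12 h before compound addition, then incubated 30-36 h at 37C. ONE-Glo luminescence was read; sodium butyrate at 4.5 mM final served as control.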
Potency is read from the fitted curve at half-maximal effect; tags tell the direction and shape of the fitted curve.

| Compound | Potency |
| --- | --- |
| Cn1c(=O)n(C)c2cc(N3CCOCC3)c(NC(=O)c3ccc(C(C)(C)C)cc3)cc21 | inconclusive: 5.62 µM [activator, single point] |
| O=C(c1ccccc1)N1CCCCC(S(=O)(=O)c2ccccc2)C1=O (stereo not given) | inconclusive: 11.2 µM [activator, partial curve] |
| COc1cc(S(=O)(=O)NC2CCCC2)ccc1Cl | inconclusive: 0.0112 µM [activator, full curve, poor fit] |
| CCc1cccc(CC)c1NC(=O)COC(=O)CCc1cc(OC)c(OC)c(OC)c1 | inactive |
| COC(=O)N/N=C\c1cc2c(cc1Br)OCO2 | inactive |
| COc1ccc(N=C2NC(=O)S/C2=C\c2ccc(N(C)C)cc2)cc1 | inconclusive: 31.6 µM [activator, single point] |
| O=C(Nc1ccc(-c2nc3cccnc3s2)cc1)C1CCCO1 (stereo not given) | active: 1.12 µM |
| O=C(Nc1ccccc1)Nc1ccc(Br)c(Cl)c1 | inconclusive: 35.5 µM [activator, single point] |
| CC(C)(C)NC(=O)CSc1nc(-c2ccccc2)c(-c2ccccc2)[nH]1 | inconclusive: 5.62 µM [activator, partial curve, poor fit] |
| Cn1/c(=N\NC(=O)c2ccccc2Cl)sc2ccccc21 | inconclusive: 11.2 µM [activator, partial curve] |
| Cc1ccc(NC(=O)CS(=O)(=O)c2nc(-c3ccc(C)cc3)cn2-c2ccc(C)cc2)cc1 | active: 17.8 µM |
| Cc1ccc(-c2noc(CSc3ccccc3)n2)cc1 | inconclusive: 12.6 µM [activator, single point] |
| CSCC[C@H](NC(=O)Nc1cccc(C(F)(F)F)c1)C(=O)O | inconclusive: 0.0112 µM [activator, full curve, poor fit] |
| COC(=O)C1=C(C)NC(=O)C1(NC(=O)CN1CCCC1=O)C(F)(F)F (stereo not given) | inconclusive: 3.16 µM [activator, single point] |
| COC(=O)C1=C(N)c2c(F)cccc2C1(C#N)c1ccccc1 (stereo not given) | inconclusive: 3.16 µM [activator, partial curve] |
| N#CC(=C1CCCC1)c1nc(-c2ccccc2O)cs1 | inconclusive: 35.5 µM [activator, single point] |
| Cc1ccc(C)c(C(=O)CCC(=O)Nc2cccnc2)c1 | inconclusive: 0.501 µM [activator, full curve, poor fit] |
| O=C(Nc1cccnc1)/C(N=Nc1c(Cl)cccc1Cl)=C(\O)c1ccccc1 | inconclusive: 2.24 µM [activator, partial curve] |
| Cc1ccccc1NC(=S)NNC(=O)c1csc2c1CCC(C)C2 (stereo not given) | inactive |
| COc1ccc(C(=O)N/N=C/c2cc3ccccc3[nH]c2=S)cc1 | inactive |
| CCn1nnc(-c2ccc(N)cc2)n1 | inconclusive: 0.282 µM [activator, partial curve] |
| O=C(N=C1SCC(=O)N1c1ccccc1)c1ccco1 | inconclusive: 11.2 µM [activator, partial curve] |
| CCN(CC)c1ccc(NC(=O)COc2ccccc2C#N)cc1S(=O)(=O)Nc1ccccc1OC | inconclusive: 1 µM [activator, full curve, poor fit] |

| Compound | Potency |
| --- | --- |
| COc1ccc(-n2nc([N+](=O)[O-])c(=NCCC3=CCCCC3)n2O)cc1 | inconclusive: 17.8 µM [activator, partial curve, poor fit] |
| CCCc1nn(C)c(C(=O)Nc2cccc(CC)c2)c1Cl | inconclusive: 25.1 µM [activator, single point] |
| CCOC(=O)N/N=C/C(Cl)=C/c1ccccc1 | inconclusive: 14.1 µM [activator, partial curve, poor fit] |
| COc1ccc(OC)c(Nc2nc3ccccc3n3c(C)nnc23)c1 | inactive |
| CCOc1ccc(N2C(=O)S/C(=C\c3cccn3C)C2=O)cc1 | inconclusive: 17.8 µM [activator, partial curve, poor fit] |
| COc1cccc(OCCCCn2c(-c3ccc(Cl)cc3)nc3ccccc3c2=O)c1 | inactive |
| Cc1c(-c2ccccc2)n[nH]c1C(=O)N=Nc1c(O)[nH]c2ccccc12 | active: 20 µM |
| CSc1cccc(-n2cc(-c3ccc4c(c3)OCO4)[nH]c2=O)c1 | inconclusive: 31.6 µM [activator, single point] |
| Nc1nc(-c2ccccc2)cc(-c2ccccc2O)n1 | inconclusive: 35.5 µM [activator, single point] |
| CC1=C(C#N)C(NC(=O)C(C)(C)C)(C(F)(F)F)C(=O)N1 (stereo not given) | inactive |
| Cc1nc(NC(=O)c2ccccc2)nc2cc3c(cc12)OCO3 | inconclusive: 0.282 µM [activator, partial curve] |
| COC(=O)C1=C(C)NC2=C(C(=O)CCC2)C1c1coc2ccccc2c1=O (stereo not given) | inconclusive: 1.26 µM [activator, full curve, poor fit] |
| COc1cc(NC(=O)CN2CCN(c3ccccc3F)CC2)cc(OC)c1 | inconclusive: 2.51 µM [activator, partial curve] |
| O=C1SC(SCc2ccccc2)=N/C1=C\c1ccco1 | inactive |
| Cc1ccc(NC(=O)c2ccc(OCC3CCCO3)cc2)cc1 (stereo not given) | active: 7.94 µM |
| N#Cc1cccc(NC(=O)CSc2ccccc2)c1 | inconclusive: 7.08 µM [activator, partial curve, poor fit] |
| O=C(Nc1cnccn1)c1csc2ccccc12 | inconclusive: 14.1 µM [activator, partial curve, poor fit] |
| O=C(CSc1nc2[nH]ncc2c(=O)n1-c1ccccc1Br)NCc1ccccc1Cl | inactive |
| Cc1ccc(CNC(=O)CSc2ccsc2[N+](=O)[O-])cc1 | inconclusive: 5.62 µM [activator, partial curve] |
| COc1ccc(S(=O)(=O)N(C)CC(=O)Nc2cccc(C(C)=O)c2)cc1 | inconclusive: 0.0158 µM [activator, full curve, poor fit] |
| CC(C)(C)S(=O)c1cccs1 (stereo not given) | inconclusive: 5.62 µM [activator, single point] |
| COc1cccc(CNc2ccc3c(c2)ncn3C(C)C)c1OC | inconclusive: 7.08 µM [activator, partial curve] |
